Test results as given in publication PMC6212790.
The list shows a part of the results. At the low end of the ranking, values are background and their order means little.

target: T1, GST-Rok-C97-191 (UniProt O34857); assay: protein binding microarray; settings: Rok is a gene silencer of Bacillus subtilis; high values mean tight binding; most listed sequences are background and not binding sites; double strand, one strand shown;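 note: rank score from −0.5 (least bound) to 0.5 (best bound)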
T1 sequence: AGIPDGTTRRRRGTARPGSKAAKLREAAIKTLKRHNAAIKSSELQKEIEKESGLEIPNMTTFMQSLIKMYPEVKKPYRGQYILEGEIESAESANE

| Sequence | binding signal [E-score] |
| --- | --- |
| CAGTAATC | -0.0737 |
| AAATAACT | 0.293 |
| AGGTCATA | -0.0971 |
| CTTTTAGA | -0.0974 |
| CACCGTGC | -0.169 |
| CAATCGAG | 0.0453 |
| AACGGGAC | 0.0504 |
| GGGAAGTA | 0.257 |
| AGTTAGAA | 0.208 |
| TCCGAGCA | 0.113 |
| GACTATTA | 0.165 |
| AGGTAGTC | 0.0784 |
| CCGAAAAG | 0.128 |
| CATGTCGC | -0.0085 |
| ACAGACTC | 0.00978 |
| TGGAGCCA | -0.182 |
| GGACTGCC | -0.361 |
| ATTTCCGG | -0.113 |
| GGCTCAGA | -0.136 |
| GCTTAGTA | 0.105 |
| CGCTAGAA | 0.247 |
| CGACATCG | -0.000361 |
| CCGTAAGG | -0.329 |
| GGGTATCA | -0.0828 |
| ACGTGACG | -0.0727 |

| Sequence | binding signal [E-score] |
| --- | --- |
| GACAATAA | 0.0721 |
| AAATTGCA | 0.035 |
| ATGGGATG | 0.0334 |
| ATCTCAGG | 0.0237 |
| ATTCAAAG | -0.0854 |
| CAGGCCGG | -0.24 |
| TATGTTGA | 0.0507 |
| GCCGCGTA | -0.133 |
| AGACAGGG | -0.206 |
| GCGGGCCA | -0.372 |
| CCATGTGC | -0.0596 |
| CCTTATTA | 0.0213 |
| CGCGGCCG | -0.292 |
| GCACGCGA | -0.193 |
| AGAAATGC | 0.0185 |
| ACCGTTCT | 0.0694 |
| AACGAACT | -0.114 |
| AAAAATCA | 0.0443 |
| CGCCCCAA | -0.198 |
| CCAAAGAC | -0.0683 |
| TGTCATAA | 0.0845 |
| GATGCTCC | -0.165 |
| ATTATCCC | 0.218 |
| ATGGGTAG | 0.22 |
| CTAATATA | 0.36 |

| Sequence | binding signal [E-score] |
| --- | --- |
| TACTCACA | -0.0115 |
| GAAAGTAC | 0.35 |
| AAGGAGAT | 0.0504 |
| GAATCCCA | -0.125 |
| AGCACCAC | -0.205 |
| ATGATCTG | -0.0834 |
| GCTGCTCC | -0.268 |
| GTCATCGA | 0.105 |
| GTGAGCGA | -0.0637 |
| ACGCGTGA | 0.0344 |
| ACAGTGCC | 0.0698 |
| GCAATTGA | 0.0573 |
| AGAAACAA | 0.225 |
| AGTACATG | 0.181 |
| TCCGTCGA | -0.101 |
| GCTTCAAA | -0.321 |
| ACGTGATC | 0.0315 |
| CCAGGTAG | 0.0315 |
| AGAGGTGG | -0.189 |
| AGTGGAAC | -0.0378 |
| ATCCGGCC | -0.219 |
| ATATGAGA | 0.122 |
| CAGGCGCG | -0.094 |
| ATAAATCG | 0.233 |
| CTGAGCAA | 0.0266 |

| Sequence | binding signal [E-score] |
| --- | --- |
| TAGGTTGA | 0.0242 |
| GTATGAGA | 0.07 |
| CAAGAGGA | -0.124 |
| AAAGACGC | -0.201 |
| ATTGTCTC | 0.00537 |
| AACGTATC | 0.137 |
| AAGCGTTA | -0.11 |
| ACTTCGTC | -0.14 |
| AGCGAGGG | -0.218 |
| ACACGGAA | -0.051 |
| ACGCCCTC | -0.299 |
| CTCAATCA | -0.0895 |
| AGCTACGC | -0.0753 |
| CTGAAACA | -0.184 |
| GAGAGTAA | 0.018 |
| GTGTCTCA | -0.133 |
| GTCCGGAC | 0.0954 |
| GGTGGAAC | -0.272 |
| CCGCGGTC | -0.239 |
| AGCTCTAT | 0.0899 |
| AGCCCTTC | -0.159 |
| CTACTTTA | 0.337 |
| AGCACCTA | -0.01 |
| AACTCCTT | -0.154 |
| GCGAATCA | -0.277 |

| Sequence | binding signal [E-score] |
| --- | --- |
| ACGTGAGC | -0.0668 |
| AATCACAC | 0.137 |
| AACACCAC | -0.113 |
| AAATCCGG | 0.0106 |
| CCTGTGCC | -0.0553 |
| GGCACAGA | -0.0314 |
| GTGTAAAC | 0.0287 |
| AAGTAACC | -0.166 |
| AGCCATAC | -0.0885 |
| AATTCTAA | 0.286 |
| ATAGTCAA | 0.23 |
| AGATTTGA | 0.149 |
| AGGACTTG | -0.0847 |
| GGATGGCA | -0.288 |
| AAATCTAA | 0.202 |
| GCGAAAAC | 0.0938 |
| AATACATA | 0.308 |
| ACACCATA | -0.155 |
| ACTATGCA | 0.273 |
| GGTGTAAC | -0.0285 |
| CTTCTGTA | 0.0822 |
| GAGCTTAA | -0.111 |
| AATATAGT | 0.337 |
| ACATTTCC | 0.122 |
| CACATTAG | 0.175 |

| Sequence | binding signal [E-score] |
| --- | --- |
| ATCGTTAG | -0.138 |
| GGCGCAGA | -0.161 |
| AGATAGAG | 0.128 |
| GGCAGGTA | -0.0893 |
| CAAGTACA | 0.151 |
| ATATCGGC | 0.132 |
| ATTTATAA | 0.294 |
| CCTACACA | -0.0862 |
| CCATAACA | 0.0044 |
| CATACAGA | 0.074 |
| CTTGACCA | -0.0401 |
| CACATTCG | -0.0205 |
| AAGCGGGC | -0.237 |
| CAGGGATC | -0.151 |
| GAAGTTCC | 0.00186 |
| GCGGACAA | 0.0143 |
| GTCGCTCA | -0.178 |
| ACTAACAA | 0.145 |
| ACCGGTAG | 0.335 |
| CCCAGGTA | 0.139 |
| GAAACCCC | -0.257 |
| GTAGTGAC | 0.104 |
| CATAAAGC | -0.119 |
| GGAAGACC | -0.269 |
| GCAGGTCC | -0.212 |

| Sequence | binding signal [E-score] |
| --- | --- |
| ACGCGCGT | -0.0522 |
| TGGTCTAA | 0.0359 |
| GTTAACTA | 0.376 |
| CCAACCGG | -0.0823 |
| GTCTGTCA | -0.198 |
| ACAGGCAA | -0.103 |
| ACGCGGAT | 0.0372 |
| GCAAGAGC | 0.025 |
| ACCACGAA | -0.121 |
| ATTACTGG | 0.0256 |
| ACTGATCG | -0.00184 |
| CAGTTGAG | 0.154 |
| TCATGGCA | -0.195 |
| AGTAGGCC | -0.0718 |
| CCATAGCG | 0.0847 |
| CTAAGTGC | -0.0912 |
| GAACTATA | 0.29 |
| CTTTTCTC | -0.0564 |
| CAGTCCGA | -0.104 |
| ACCCGAGT | -0.0212 |
| GCGTGCAC | -0.00144 |
| CACTTAAC | 0.15 |
